From article PMC9060002
No constants are given. Whether binding was seen depends on the method and setting. Binding seen in cells or lysates may run through a third protein. Some binding calls cover weakened binding; strength is not graded here.

By UniProt entry, the sequences of proteins in these tests, tags left out. Where a name states a change or a piece, a line headed by the entry shows the natural chain unless it says otherwise. Chains listed by the source or under a name are the forms on record and can include a tag or linker.
UniProt P13569: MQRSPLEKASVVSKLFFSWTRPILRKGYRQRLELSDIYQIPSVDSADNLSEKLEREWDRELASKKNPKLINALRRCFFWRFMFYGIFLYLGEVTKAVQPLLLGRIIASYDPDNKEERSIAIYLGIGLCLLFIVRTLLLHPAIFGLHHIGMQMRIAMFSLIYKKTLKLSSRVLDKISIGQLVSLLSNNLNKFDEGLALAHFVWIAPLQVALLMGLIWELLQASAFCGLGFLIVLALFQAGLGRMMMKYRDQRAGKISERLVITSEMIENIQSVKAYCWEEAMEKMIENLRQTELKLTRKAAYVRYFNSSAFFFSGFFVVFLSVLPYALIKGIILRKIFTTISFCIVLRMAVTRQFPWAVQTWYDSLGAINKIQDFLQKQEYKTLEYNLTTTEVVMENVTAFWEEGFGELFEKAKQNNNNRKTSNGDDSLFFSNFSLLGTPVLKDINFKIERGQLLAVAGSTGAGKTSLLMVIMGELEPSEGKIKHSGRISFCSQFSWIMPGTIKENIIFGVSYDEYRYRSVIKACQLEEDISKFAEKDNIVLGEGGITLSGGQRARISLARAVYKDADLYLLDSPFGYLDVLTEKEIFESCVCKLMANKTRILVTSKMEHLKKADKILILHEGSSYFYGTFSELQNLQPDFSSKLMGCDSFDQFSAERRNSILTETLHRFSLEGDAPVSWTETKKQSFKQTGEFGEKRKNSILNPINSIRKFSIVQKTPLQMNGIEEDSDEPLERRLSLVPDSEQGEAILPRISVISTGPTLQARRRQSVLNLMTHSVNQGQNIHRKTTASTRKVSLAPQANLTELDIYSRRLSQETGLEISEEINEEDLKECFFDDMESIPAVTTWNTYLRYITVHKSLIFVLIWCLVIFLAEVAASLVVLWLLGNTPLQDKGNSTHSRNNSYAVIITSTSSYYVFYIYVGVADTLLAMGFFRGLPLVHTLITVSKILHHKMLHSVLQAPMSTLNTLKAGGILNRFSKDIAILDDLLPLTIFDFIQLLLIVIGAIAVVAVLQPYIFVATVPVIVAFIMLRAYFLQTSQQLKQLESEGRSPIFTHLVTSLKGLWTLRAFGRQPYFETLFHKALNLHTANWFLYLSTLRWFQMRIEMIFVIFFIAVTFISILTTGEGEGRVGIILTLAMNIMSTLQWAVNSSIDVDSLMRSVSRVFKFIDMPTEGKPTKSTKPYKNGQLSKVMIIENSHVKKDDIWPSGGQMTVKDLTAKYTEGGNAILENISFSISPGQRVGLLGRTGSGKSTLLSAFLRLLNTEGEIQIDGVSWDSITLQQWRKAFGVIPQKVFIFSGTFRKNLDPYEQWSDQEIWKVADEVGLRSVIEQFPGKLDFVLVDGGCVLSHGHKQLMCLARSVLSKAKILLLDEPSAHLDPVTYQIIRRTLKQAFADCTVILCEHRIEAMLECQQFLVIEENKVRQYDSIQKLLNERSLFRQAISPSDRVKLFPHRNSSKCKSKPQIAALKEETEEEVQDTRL
F508del-CFTR (CFTR with deletion of phenylalanine 508) (P13569, form named): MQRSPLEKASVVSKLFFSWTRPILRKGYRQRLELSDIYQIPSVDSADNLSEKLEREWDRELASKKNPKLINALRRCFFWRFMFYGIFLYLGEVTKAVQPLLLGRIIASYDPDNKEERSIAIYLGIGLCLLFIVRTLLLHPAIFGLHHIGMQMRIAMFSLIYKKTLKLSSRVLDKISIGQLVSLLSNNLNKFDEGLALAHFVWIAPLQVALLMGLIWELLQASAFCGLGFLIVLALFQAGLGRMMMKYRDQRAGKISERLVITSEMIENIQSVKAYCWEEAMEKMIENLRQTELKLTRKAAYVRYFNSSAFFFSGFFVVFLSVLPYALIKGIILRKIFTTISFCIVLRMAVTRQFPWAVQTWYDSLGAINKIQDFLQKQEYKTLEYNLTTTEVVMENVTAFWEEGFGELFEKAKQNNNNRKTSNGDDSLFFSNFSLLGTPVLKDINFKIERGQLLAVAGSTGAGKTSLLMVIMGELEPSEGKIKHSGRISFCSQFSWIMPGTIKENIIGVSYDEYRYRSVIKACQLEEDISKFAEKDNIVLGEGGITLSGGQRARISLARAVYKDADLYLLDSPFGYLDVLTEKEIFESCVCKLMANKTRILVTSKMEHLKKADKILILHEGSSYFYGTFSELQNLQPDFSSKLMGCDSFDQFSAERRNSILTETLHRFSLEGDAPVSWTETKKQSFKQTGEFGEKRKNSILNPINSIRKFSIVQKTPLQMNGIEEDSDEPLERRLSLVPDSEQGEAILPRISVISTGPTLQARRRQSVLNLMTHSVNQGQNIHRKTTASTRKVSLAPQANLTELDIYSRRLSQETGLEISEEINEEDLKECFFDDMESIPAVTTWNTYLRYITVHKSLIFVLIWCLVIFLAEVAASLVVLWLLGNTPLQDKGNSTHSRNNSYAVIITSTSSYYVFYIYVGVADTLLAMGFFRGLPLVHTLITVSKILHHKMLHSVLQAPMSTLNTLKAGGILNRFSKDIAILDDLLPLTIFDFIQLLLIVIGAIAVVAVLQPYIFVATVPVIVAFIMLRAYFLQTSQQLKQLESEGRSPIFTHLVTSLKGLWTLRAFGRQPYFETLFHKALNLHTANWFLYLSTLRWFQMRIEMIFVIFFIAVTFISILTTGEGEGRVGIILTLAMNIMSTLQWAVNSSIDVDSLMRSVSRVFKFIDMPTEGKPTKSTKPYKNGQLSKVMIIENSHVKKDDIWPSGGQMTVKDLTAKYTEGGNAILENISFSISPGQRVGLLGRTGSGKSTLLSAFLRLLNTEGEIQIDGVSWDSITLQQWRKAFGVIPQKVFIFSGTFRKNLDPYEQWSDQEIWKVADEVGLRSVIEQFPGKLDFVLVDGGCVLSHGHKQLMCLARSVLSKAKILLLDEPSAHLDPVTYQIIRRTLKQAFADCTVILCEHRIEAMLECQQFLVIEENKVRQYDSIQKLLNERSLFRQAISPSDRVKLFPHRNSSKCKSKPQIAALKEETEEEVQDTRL
UniProt Q15672: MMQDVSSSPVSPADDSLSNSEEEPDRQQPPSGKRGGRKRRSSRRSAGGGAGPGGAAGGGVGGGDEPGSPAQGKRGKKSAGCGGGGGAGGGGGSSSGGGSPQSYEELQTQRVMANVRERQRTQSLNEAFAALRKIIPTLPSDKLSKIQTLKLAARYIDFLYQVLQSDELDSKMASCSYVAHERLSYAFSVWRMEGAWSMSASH
UniProt P46937: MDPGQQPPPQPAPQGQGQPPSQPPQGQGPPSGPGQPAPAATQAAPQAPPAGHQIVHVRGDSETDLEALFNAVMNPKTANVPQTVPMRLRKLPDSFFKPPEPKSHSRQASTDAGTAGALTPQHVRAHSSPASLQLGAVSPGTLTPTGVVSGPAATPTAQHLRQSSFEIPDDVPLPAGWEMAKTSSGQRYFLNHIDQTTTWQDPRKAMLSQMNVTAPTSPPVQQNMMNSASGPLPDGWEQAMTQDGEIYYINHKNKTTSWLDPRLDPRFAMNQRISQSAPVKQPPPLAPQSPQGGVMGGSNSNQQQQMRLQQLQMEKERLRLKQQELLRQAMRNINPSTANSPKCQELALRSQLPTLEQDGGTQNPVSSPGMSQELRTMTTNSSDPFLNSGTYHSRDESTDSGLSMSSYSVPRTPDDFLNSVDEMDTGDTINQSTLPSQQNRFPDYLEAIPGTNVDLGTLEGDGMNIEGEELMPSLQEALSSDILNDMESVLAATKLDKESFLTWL

Tests used:
Assay in all cases: co-IP; CFBE wt- and F508del-CFTR cells lysed in Triton lysis buffer (25 mM Tris-HCl pH 7.4, 150 mM NaCl, 1% Triton X-100); pre-cleared supernatants incubated overnight at 4°C with anti-YAP1, anti-CFTR or anti-TWIST1 antibodies crosslinked to Protein G agarose beads; washes with 300 mM NaCl; Western blot; qualitative
[1] = target: wt-CFTR (cystic fibrosis transmembrane conductance regulator, wild type) (human) (UniProt P13569)
[2] = target: F508del-CFTR (CFTR with deletion of phenylalanine 508) (human) (UniProt P13569)
[3] = target: TWIST1 (human (endogenous in CFBE)) (UniProt Q15672)

binding [1]	binding [2]	binding [3]	Substance
binds	binds		TWIST1 (from UniProt Q15672 1-202)
no binding	binds	no binding	Yes-associated protein 1 (YAP1) (from UniProt P46937 1-504)
